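In this assay, cells in 96-well plates receive the compound at five concentrations for 48 hours. Endpoints are linearly interpolated between the surrounding concentrations. At the GI50, growth is halved. TGI marks complete inhibition of growth.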
System: NCI-H322M lung
Assay: NCI-60 cell line screen, 48 h

Compared with NS(=O)(=O)c1ccc(Nc2nc(N/N=C/c3cc(Br)c(O)c(Br)c3)nc(Nc3ccccc3)n2)cc1, O=C(COc1ccc(/C=C2/C(=O)Nc3ccc(Cl)cc32)cc1)Nc1ccc(Br)cc1 is 6-fold lower in GI50: 14.2 µM for the first, 2.37 µM for the second.

Going from COc1cccc2nc(Nc3cccc(NC(=O)c4ccc(CN5CCCN(C)CC5)c(C(F)(F)F)c4)c3)ccc12 to Cc1cc(=O)oc2cc(OCCCOc3ccc(/C=C/C(=O)Nc4ccccc4N)cc3)ccc12, the GI50 rises from 2.12 µM to 5.14 µM (2.4-fold).

Going from NS(=O)(=O)c1ccc(Nc2nc(N/N=C/c3cc(Br)c(O)c(Br)c3)nc(Nc3ccccc3)n2)cc1 to O=C(COc1ccc(/C=C2/C(=O)Nc3ccc(Cl)cc32)cc1)Nc1ccc(Br)cc1, the TGI falls from 27.3 µM to 11.8 µM (2.3-fold).

Compared with COc1cccc2nc(Nc3cccc(NC(=O)c4ccc(CN5CCCN(C)CC5)c(C(F)(F)F)c4)c3)ccc12, Cc1cc(=O)oc2cc(OCCCOc3ccc(/C=C/C(=O)Nc4ccccc4N)cc3)ccc12 is higher in TGI: 5.82 µM for the first, over 100 µM for the second.
